# The other results are listed elsewhere or left out.
# Tested on: PfSIP2 AP2 domain 1 (GST-tagged)
# Experiment: gcPBM binding intensity (ln(normalized median fluorescence intensity)); higher = stronger DNA binding
# Method in brief: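 For binding intensity, the highest Masliner-normalised natural-log median intensity across replicate spots of either probe orientation was taken. Protein bound to the array was stained with Alexa488 anti-GST antibody and scanned at 488 nm. The protein, GST-tagged P. falciparum DNA-binding domains from E. coli at about 25 μg on average, had been applied for 1 h to an Agilent 4 × 180k array of primer-extended double-stranded 36-bp intergenic genomic probes and negative controls.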
row,Sequence,gcPBM binding intensity (ln)
1,TTTTTCAGAAAAGAAACACACATATAAATATTTATA [CACACA_site7170],6.96
2,AGGGCATATATATATGCACACATACATATATACATG [CACACA_site9282],7.3
3,AATATTATGATATTATGTACATATTAAAAGCACCAC [XGTACX_site6236],9.58
4,TATGCATATACACAAGCACACATATATATATATATA [CACACA_site8266],9.4
5,AAAAAAAAAAAAAAAAAAACTAATATAATAAAAATA [TGCATGCA_negctrl_site150],8.03
6,AAAAAAATAATATAATATTAAATCTTAGTTAATAAA [GTGCAC_negctrl_site658],6.63
7,TTTTTTTTTTTTTACACACCCAAATCACATACATAT [CACACA_site6089],7.35
8,TTTTTTTTTTTTTTTTCTTTTTTTTTTTTAAATAAG [XGTACX_negctrl_site418],6.78
9,AACATCTTATCATCATGTACGAAGCAGTTTTATAAG [XGTACX_site2490],6.98
10,TATAATAAATATACTGGTACACAAATATATATATTT [XGTACX_site7741],7.04
11,TGTAATTTTTTACGTTGTACATATATTAACAATATA [XGTACX_site3991],7.08
12,ATATTATATTTACATAGTACACTATATGTATATATA [XGTACX_site2101],6.94
13,TTACATATTTTCATTTGTACATATTCATTTTTTTTC [XGTACX_site6988],6.91
14,AAATAACCCACGTGCATGCACTTCAATAACTGAACT,9.05
15,TAAAAAAGAAAAAGAGCACACAAAAATATTTAACCT [CACACA_site8885],6.95
16,TATATATTTATATATTGTACACTCTTATGTAGTGTA [XGTACX_site210],6.95
17,ATTTTTATATTTAATACACACATAAAATCATACCAT [CACACA_site23],7.13
18,ATGTCAGGGAAAAAAACACACAAGAGTATGATATGT [CACACA_site2180],6.93
19,AATATATACATACATACATGCACATATATATATATA [TGCATGCA_site393],9.23
20,AAATAGTTGTTATGGGTGCAAACCACATATATATAA [GTGCAC_site9428],11
21,AGGCCTTTTAGTATTTCACACACGTAAATGTGTATA [CACACA_site8284],6.8
22,ATTTGTTTAAGTCACGAACACACATATATCATCAAT [CACACA_site985],6.92
23,ATTATTTACCACAACACACAAATATTTACCAATCAT [CACACA_site5472],7.33

row,Sequence,gcPBM binding intensity (ln)
1,GTTTATTAGGAATTATGTACACAGTTTTATAAAGAA [XGTACX_site2994],7.31
2,AATATAATATATTGCACACAAAAAGTGAATTATTCT [CACACA_site1684],7.12
3,AAATTAAATGTAAGCACACATAAATTATACGCATAT [CACACA_site3335],6.92
4,ACATTGAATAAATAATGTACATATATAATATATATT [XGTACX_site95],7.05
5,TTGCAGTATTTCGGAACACACAAACATAAATATGTA [CACACA_site5307],7.06
6,AAATATTATTCATTTTGTACGTATAATTTTTAATGA [XGTACX_site3509],6.95
7,AGTAGTCTGGAGAAAAGTACACAGTATCTGGTAGCT [XGTACX_site2544],6.82
8,TATAATAATCCACAAGCACACACACCCACATATATA [CACACA_site8343],7.2
9,GATCTTTCACATATATATATAAAGGATATTATGGTA [CACACA_negctrl_site522],7.04
10,ATTATATTATATTATACATGCATAATATTATATAAA [TGCATGCA_site647],7.08
11,TTATTACACAAATGGTGTACTTTTGAGGAACCAAAA [XGTACX_site4279],7.23
12,TTTTCATTCTTTTCCTTTGATTTACAATAGTATATT [GTGCAC_negctrl_site687],6.8
13,TCATTATATTATTCTTGTACTTATATCCTTTTTTGA [XGTACX_site5320],6.97
14,TAAAAGTTCACCTGTACACACATATATATCTGTACA [CACACA_site5019],7.04
15,CAAAATATTATCATGATGCACTTTACACTCTAAGGT,8.34
16,AAAAAATAAAAGTGGGGTACATGTCATTATGTGCAT [XGTACX_site3753],7.08
17,TTTTTTTCGTATATTACACACTATAAATAGAAATTA [CACACA_site6278],7.1
18,TCATATTTTACATATGCATGTTAATAATACAAACAT [TGCATGCA_site994],6.9
19,ATTTATTTATGTATTTGTACGTATATATTTATGCAT [XGTACX_site5218],7.05
20,GTATAACAACTGATAAAAGAAAAAAAATTTATTATT [CACACA_negctrl_site377],6.8
21,ATAATATTTTTAAACTGTACTTTTATAAACACTTAT [XGTACX_site2625],7.2
22,ATATTATGTCTACATAAACACACATATATATAAAAA [CACACA_site7976],7.14
23,AATAAATATTCATTTTGTACATATTTTTCGTATATG [XGTACX_site6104],6.84

row,Sequence,gcPBM binding intensity (ln)
1,TTACCATAAGTATGTGGTACACTTTAAATGAAGATA [XGTACX_site6972],7.06
2,AATAGTTATAAATATAAATATATATATATATATATA [CACACA_negctrl_site414],9.4
3,TTAACATCAAAATATGCACACAAACAATTAGCGGTA [CACACA_site8801],7.82
4,TATATATATAAATACACACACACCCTAAAAATATAT [CACACA_site4970],7.57
5,TTTTTTTTTTTTTTTACACACACAAAATATTATATG [CACACA_site2471],6.88
6,TATTATTTACCTTGCTAGTTCGTTCCAAATTTTATG [XGTACX_negctrl_site197],7.15
7,TATATTATTCATTAAGCACACATTATTTTTATAATA [CACACA_site6056],6.95
8,ATGTTTGATGCTACACGTACACACCTTGCAAATATT [XGTACX_site1644],7.36
9,AAAACTATAATAAAAGGTACACATTTATTTTTTTCT [XGTACX_site730],6.85
10,AAAACAAATTTTAATGAGAATATGAAAAAAAAATAT [XGTACX_negctrl_site268],6.95
11,TATTCTAATATATGCATACACACAAATGTGAATATA [CACACA_site2143],7.07
12,CACATTATGTATCATACACACAAATAAATATAGAAT [CACACA_site609],7.03
13,TTTATATGTATTAAGTGTACACATATAATGTGTTTT [XGTACX_site4890],6.86
14,ATTTTAAATATTTGTGGTACCCCTTTTTTGTAACAA [XGTACX_site5590],7.38
15,TAAAAAAGAACAGAAACACACAAATAAAATAAAATT [CACACA_site1758],6.99
16,CAAAATTGAAGGAACACACATACATATATATATATG [CACACA_site179],6.94
17,CTTTGTGGTATAGATACACACTATATTAATATGAAC [CACACA_site7081],7
18,AAATAAAAAGGGTGCACACAAAAATATATATATATA [CACACA_site1728],12.4
19,ACAAGGAATATATAAGATAATTTTAAATATAACACG [CACACA_negctrl_site1734],7.17
20,ATATATATAATTTTTACACACGCAATAAATATATAT [CACACA_site218],7.17
21,AATCAAAATATATCTACACACATTTAAGTAACACAT [CACACA_site3482],6.96
22,TTATAATAAAGAGGAGTGCAAAAAAAAAAAAAAAAA,9.48
23,TAAATATCAAAACACACACACAAAAGTGAATAAATA [CACACA_site3762],6.86

row,Sequence,gcPBM binding intensity (ln)
1,TAAAGAGAAAAACATACACACACAACAAAATATGTA [CACACA_site8872],6.74
2,AGGAACATAAGCAATGTATAAACATAAAACTATAAT [CACACA_negctrl_site1832],6.83
3,TATAAGGTGTCCTATACACACTCCAATAAATATATA [CACACA_site2091],6.88
4,ATTTTTTTCTTAGGAGTGCACTTATATTTATTTTAT,11.2
5,TATTAATTAAACCATACACACATAACTTTTTTATAA [CACACA_site6526],6.91
6,AAAAAAAAAAAAAACACACACACACCCACATATACA [CACACA_site2663],7.41
7,AATAATTTTTAAATATAAACATTTTTTTTTTTTTTT [GTGCAC_negctrl_site532],6.97
8,ATTAAATGCACATATACACACACCCAATTTTAAGTT [CACACA_site3049],7.4
9,ATAAAATATTAGACATTTATTAATATTACACATATC [XGTACX_negctrl_site364],6.81
10,ATATATATATATTCCACACACACACCCAAAAAAAAA [CACACA_site3649],9.15
11,ACAAAATAAACCACGTGTACAAATTTATAATGTGTA [XGTACX_site1153],7.21
12,TTTTATTTTTTATTTGCACACAATATGTAAAAAAAT [CACACA_site2927],7.5
13,TCAAAAGAATAATTGGTGCAAATTATATAATATAAT [GTGCAC_site9804],10.2
14,ATATTTATGGAAAAAGAACACACAATCAAACAAAAA [CACACA_site9233],7.18
15,CTTTTTTATATCTCTACACACATTTATAACCATTTG [CACACA_site4897],7.12
16,TATTTTAAAAAAAAAAGTACACATAATATATATAAC [XGTACX_site5416],7.44
17,ATACATTTATTGTATTGTACATAATATTATATATTC [XGTACX_site7115],6.93
18,TAATATAATAGAAGTGTACACACATATTTATGGGTG [CACACA_site9023],7.19
19,TAATATAATGATGCAGTGCATATGTTAAAATGAAAA,8.72
20,AAGGTATTTATAACTACACACTTATTTATAACCTAA [CACACA_site6194],6.67
